Data as given in the BET-seq Pho4 binding data (Le et al. 2018).
Some of the results follow. Values were computed here from the reads of four pooled replicates and scatter widely.

Target: T1, Pho4 (S. cerevisiae) (UniProt P07270)
T1 sequence: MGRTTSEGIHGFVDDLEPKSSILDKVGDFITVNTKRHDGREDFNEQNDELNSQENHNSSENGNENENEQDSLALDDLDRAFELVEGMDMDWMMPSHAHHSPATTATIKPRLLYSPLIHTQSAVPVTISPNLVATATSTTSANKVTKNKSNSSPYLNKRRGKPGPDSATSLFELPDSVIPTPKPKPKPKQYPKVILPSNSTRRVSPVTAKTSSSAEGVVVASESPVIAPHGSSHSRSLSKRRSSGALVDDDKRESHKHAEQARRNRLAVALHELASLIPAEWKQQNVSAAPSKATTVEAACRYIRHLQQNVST
Test: relative binding free energy (BET-seq); higher = weaker binding
Conditions: reference: library average

| Sequence | relative binding free energy [kcal/mol] |
| --- | --- |
| TCGTGCACGTGAGGTT | 0.33 |
| TACGGCACGTGTGGTT | -0.01 |
| CAGGACACGTGCTGGG | -0.02 |
| TATGTCACGTGTCGCG | 0.06 |
| TTACTCACGTGGGTTA | -0.02 |
| AGTTTCACGTGGCGAG | 0.22 |
| TCGAGCACGTGTTTTT | 0.01 |
| TTGTTCACGTGGGCCG | 0.22 |
| GGCTACACGTGTGGGT | 0.18 |
| TAGTGCACGTGGATTC | 0.09 |
| TCTATCACGTGTTGGA | 0.18 |
| TGAGGCACGTGATATT | 0 |
| GTTTTCACGTGTGGTA | 0.21 |
| TTACACACGTGTGGAG | 0.07 |
| AAATTCACGTGGCGTT | 0.24 |
| ATGCACACGTGAGGGG | 0.1 |
| CTTAGCACGTGTGGTT | -0.07 |
| TCATTCACGTGGTTTT | 0.21 |
| TTGTACACGTGGAAGA | 0.18 |
| CTATACACGTGTTGAG | 0.17 |
| GAGCGCACGTGATGGG | 0.27 |
| TTGGCCACGTGCTTGT | -0.19 |
| CGGTTCACGTGCGTGT | 0.1 |

| Sequence | relative binding free energy [kcal/mol] |
| --- | --- |
| TGATGCACGTGTTACT | -0.07 |
| TTCAACACGTGAGGGG | 0.21 |
| TGACGCACGTGGAGTT | -0.01 |
| TGTTCCACGTGTTAGG | 0.1 |
| CATGGCACGTGATTTG | 0.18 |
| TGTAGCACGTGTGGAC | 0.13 |
| GTTTACACGTGCGTAT | 0.16 |
| TAGTACACGTGGTGTA | -0.21 |
| TATTTCACGTGTCGGC | 0.28 |
| AGGGTCACGTGCGGAA | 0.11 |
| GTAAGCACGTGTATTG | -0.01 |
| GGAGTCACGTGTAGTC | 0.32 |
| TTTCACACGTGTGTAA | 0.09 |
| GATGTCACGTGTACGT | 0.09 |
| TAGTCCACGTGGTAGT | 0.14 |
| GTGGCCACGTGCTTAG | 0.05 |
| CATAGCACGTGGAGAT | 0.09 |
| AGGAGCACGTGGGGAC | -0.15 |
| TGTAACACGTGGGTGC | -0.25 |
| TATTTCACGTGAATCT | 0.36 |
| TGCATCACGTGGTATA | 0.31 |
| AGAATCACGTGTTTAG | 0.13 |
| TAGAGCACGTGTTTTT | -0.02 |

| Sequence | relative binding free energy [kcal/mol] |
| --- | --- |
| TGATGCACGTGTATTG | -0.02 |
| TTGTGCACGTGGTGTA | -0.18 |
| GAGTTCACGTGCTTGG | 0.32 |
| TGAAACACGTGGGATA | 0.08 |
| TGGACCACGTGGGCGG | -0.14 |
| TGGGACACGTGGTTTA | 0.02 |
| CAGGTCACGTGAAGTG | 0.27 |
| CGTGGCACGTGCGTAG | -0.23 |
| GTTCGCACGTGGGTTC | -0.04 |
| GAGAGCACGTGAGTTG | 0.24 |
| GGTGTCACGTGCCTGG | 0.08 |
| TTTAACACGTGGTACG | -0.04 |
| GAAAACACGTGTGTGT | 0.09 |
| ATTAGCACGTGTCGTG | -0.22 |
| CGGTGCACGTGGGAGA | -0.11 |
| CTGTTCACGTGTGGCG | 0.31 |
| TGAGGCACGTGGCGTG | -0.24 |
| GTGTACACGTGCGTGG | -0.09 |
| ATGCTCACGTGTGAGG | 0.28 |
| GGCTGCACGTGGTCTT | -0.03 |
| GGTAGCACGTGGGCGC | -0.12 |
| TGTGTCACGTGGGGCG | -0.01 |
| GGAGGCACGTGATTTT | 0.08 |

| Sequence | relative binding free energy [kcal/mol] |
| --- | --- |
| GGAGTCACGTGGTAAA | 0.16 |
| TGCGTCACGTGAACTT | 0.36 |
| AATTTCACGTGTAGAG | 0.29 |
| AGATGCACGTGCGTTA | -0.03 |
| AAGTACACGTGATAGG | 0.18 |
| ATCTGCACGTGGTTTG | -0.23 |
| AAGAGCACGTGTGAAG | 0.12 |
| GTATACACGTGTTTTA | 0.04 |
| AATCTCACGTGTGTAT | 0.23 |
| AGCAACACGTGGGGGA | -0.09 |
| AGAGTCACGTGAATGG | 0.31 |
| TTTGTCACGTGATATC | 0.25 |
| GGCGCCACGTGGAGTG | -0.15 |
| GGTTGCACGTGGTCGT | -0.03 |
| TCTAGCACGTGGTGGG | -0.04 |
| TGGTACACGTGTTATA | 0.03 |
| GGGTCCACGTGTGTGG | 0.07 |
| GTGCACACGTGGGTTT | 0.06 |
| CACATCACGTGGGGGG | -0.02 |
| AAAAGCACGTGGGTTT | -0.2 |
| GTCCTCACGTGTGTTT | 0.2 |
| TGACGCACGTGGTGTT | -0.24 |
| GTTGACACGTGCGATT | 0.16 |

| Sequence | relative binding free energy [kcal/mol] |
| --- | --- |
| CATGTCACGTGTAGTT | 0.22 |
| GAGGCCACGTGTGATG | 0.15 |
| AGTAGCACGTGGATTT | -0.03 |
| TGGATCACGTGTGGGG | 0.25 |
| GCTTACACGTGTAGGA | 0.33 |
| GTATACACGTGAGGTG | 0.32 |
| ATATTCACGTGTAGGA | 0.21 |
| GTTAACACGTGGTAAT | 0.02 |
| TCCATCACGTGGTTTG | 0.14 |
| TGTTTCACGTGTTGCT | 0.24 |
| AAATTCACGTGGGCTT | 0.16 |
| AAAGTCACGTGTTGGC | 0 |
| TCTTACACGTGTAATG | 0.24 |
| CGGGGCACGTGGTTTA | -0.04 |
| GGAGTCACGTGATTTA | 0.32 |
| TTAGCCACGTGGGGTT | -0.17 |
| TTGGGCACGTGCAATT | -0.11 |
| TTGGTCACGTGCGCTT | 0.04 |
| TAACTCACGTGGGATA | 0.26 |
| TCGGTCACGTGCTTGG | 0.14 |
| TTCGTCACGTGCGGTG | 0.03 |
| ACGGGCACGTGGTAGC | -0.12 |
| GGTGGCACGTGCCGCG | -0.27 |
